Measured values taken from PubChem BioAssay AID686971 (National Center for Advancing Translational Sciences (NCATS), 2013).
The campaign covered roughly 360,000 compounds. About 7,500 (2.1%) were called active. The inconclusive results got no clear call from the source; some entries with a clear call stand among them for comparison. Calls follow the shape of the dose curve; as a rule, active = well fitted cell-killing curve with a large enough effect; inconclusive = small, poorly fitted or top-dose-only effect, or effect the other way, or another doubt; inactive = no such curve, though single readings can be large or run the other way. Potencies of inconclusive entries are left out as doubtful fits.

Test: qHTS for induction of synthetic lethality in tumor cells producing 2HG: qHTS for the HT-1080-IDH1KD cell line;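 as to activity, negative = toxicity: 0% = DMSO wells and -100% = cell-free medium wells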
Details: HT-1080 IDH1 knockdown viability, ATP luminescence, 48 h; activity, negative = toxicity: at 46.1 µM (top of the series) unless noted
Summary of the method: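 % activity derives from luminescence (CellTiter-Glo), normalised to DMSO and no-cell wells. HT-1080-IDH1KD cells, 750/well, had 48 h compound exposure at 37 °C.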
Potency is read from the fitted curve at half-maximal effect; tags tell the direction and shape of the fitted curve.

Row | SMILES | Potency | activity, negative = toxicity
1 | CCOC(=O)/C(=N\Nc1ccccc1[N+](=O)[O-])c1csc(N)n1 | inactive | –
2 | CCCc1nnc(NC(=O)CCC(=O)N2CCN(Cc3ccc(C)cc3C)CC2)s1 | inactive | –
3 | O=C(CNC(=O)c1ccc(Br)o1)Nc1ccc(F)c(S(=O)(=O)N2CCOCC2)c1 | inactive | –
4 | COc1ccc(C23CC4CC(CC(C4)C2)C3)cc1C(=O)NCCN(C)C | inconclusive [cytotoxic, single point] | –
5 | O=S(=O)(c1ccccc1Cl)N1CCC(O)(c2cccnc2)CC1 | inactive | –
6 | CCOc1cccc(C(=O)NC2=NCCS2)c1 | inconclusive [rising, partial curve, poor fit] | –
7 | S=C(Nc1cccc(Cl)c1)N(CCCN1CCCC1)Cc1cccn1Cc1ccc(Cl)cc1 | active: 18.4 µM | –
8 | COc1cccc(NC(=O)CN2C(=O)CSc3ccc(S(=O)(=O)N4CCC(C)CC4)cc32)c1 | inconclusive [cytotoxic, single point] | –
9 | Cc1cc(NC(=O)c2ccc3sc([C@@H]4O[C@H](CO)[C@H](O)[C@H](O)[C@H]4O)nc3c2)no1 | inactive | –
10 | Cn1nc(C(=O)OCC(=O)c2ccc[nH]2)c2ccccc2c1=O | inactive | –
11 | Cc1cc(C(O)c2ncc(-c3ccccc3)[nH]2)ccc1F (centres undefined) | inactive | –
12 | CCCNC(=S)NNC(=O)c1cccs1 | inactive | –
13 | c1ccc(-c2c(-c3ccccc3)n(Cc3ccco3)c3ncnc(NCCCn4ccnc4)c23)cc1 | active: 18.4 µM | –
14 | COc1ccc(N2CCN(C(=O)CCc3ccccc3)CC2)cc1 | inactive | –
15 | CCOC(=O)CSc1nc2sc3c(c2c(=O)n1-c1ccccc1)CCN(C(C)C)C3 | – | inconclusive: -34.9% [cytotoxic]
16 | O=C(NC(c1ccc2ccccc2n1)c1cccs1)C1CCN(Cc2cccc(C(F)(F)F)c2)CC1 (centres undefined) | active: 16.4 µM | –
17 | CCOc1cc(CNCc2ccncc2)cc(Br)c1OCc1ccc(F)cc1 | active: 11.2 µM | –
18 | CC(=O)C(=Cc1ccc(-c2ccccc2)cc1)C(=O)c1ccccc1 | active: 23.1 µM | –
19 | O=C(CNC(=O)[C@@H]1Cc2ccccc2CN1)Nc1ccc2c(c1)OCCO2 | inactive | –
20 | CCOC(=O)c1[nH]c(C)c(C(=O)c2ccc(C)cc2)c1C | active: 1.26 µM | –
21 | Cc1ccccc1C(=O)N1N=C(c2ccc(NS(C)(=O)=O)cc2)CC1c1cccs1 (centres undefined) | inconclusive [cytotoxic, single point] | –
22 | Cc1ccc(-n2c(N)c(C#N)c(-c3ccc(Cl)cc3)c(C#N)c2=O)cc1 | inactive | –
23 | O=C(c1ccc(S(=O)(=O)N2CCCC2)cc1)N1CCCc2ccccc21 | inactive | –
24 | Cc1cccc(OCC(=O)Nc2ccc(N3CCCC3)cc2)c1C | inactive | –
25 | COc1cccc(NC(=O)COC(=O)COc2cccc3c2OC(C)(C)C3)c1 | inactive | –
26 | COc1ccc2cc(CN(CC3CCCO3)C(=O)Nc3ccccc3OC)c(=O)[nH]c2c1 (centres undefined) | active: 2.31 µM | –
27 | O=C(O)c1cccc(NC(=S)N/N=C/c2ccccc2OCc2cccc(Br)c2)c1 | inactive | –

Row | SMILES | Potency | activity, negative = toxicity
28 | Cn1cc([N+](=O)[O-])c(C(=O)Nc2ccc(Br)cn2)n1 | active: 7.08 µM | –
29 | Cc1noc2ncnc(Sc3ccccc3Cl)c12 | inconclusive [cytotoxic, single point] | –
30 | Cc1cc(NC(=O)c2ccccc2Cl)ccc1NC(=O)c1ccccc1Cl | inactive | –
31 | O=C(CN1C(=O)NC2(CCCC2)C1=O)Nc1ccc(Cl)c(C(F)(F)F)c1 | inconclusive [cytotoxic, single point] | –
32 | O=C(C1=C(O)C(=O)N(CC2CCCO2)C1c1cccc(O)c1)c1ccco1 (centres undefined) | inactive | –
33 | Cc1ccc(C2CCN(C(=S)NC3CCCCC3)C2)cc1 (centres undefined) | inconclusive [cytotoxic, single point] | –
34 | COc1ccc(O[C@@H]2O[C@H](COC(C)=O)[C@@H](OC(C)=O)[C@H](OC(C)=O)[C@H]2NC(C)=O)cc1 | inactive | –
35 | CC(=O)Nc1cccc(C(=O)/C=C/c2ccco2)c1 | inactive | –
36 | Cc1cc(C)n(-c2nc(SCCN(C)C)c3c4c(sc3n2)COC(C)(C)C4)n1 | inconclusive [cytotoxic, single point] | –
37 | Cc1ccc(N2CC(O)=C(c3nc4ccccc4c(=O)[nH]3)C2=N)cc1C | – | inconclusive: -1.58% [cytotoxic]
38 | O=C(COC(=O)c1n[nH]c(=O)c2ccccc12)Nc1ccccc1 | inactive | –
39 | CCN=C1SC(C(=O)Nc2cccc(OCC)c2)CC(=O)N1CC (centres undefined) | – | inconclusive: 33%
40 | CCCc1nc2ccc(C)cn2c1Cc1ccc(C)cc1 | inconclusive [cytotoxic, single point] | –
41 | CC(=O)c1ccc(-c2cccc(-c3nc4ccccn4c3NC3CCCCC3)c2)cc1 | inconclusive [cytotoxic, partial curve, poor fit] | –
42 | Cc1ccc(OCc2ccc(C(=O)NCC3CCCO3)cc2)cc1C (centres undefined) | inactive | –
43 | CN(c1ccccc1)S(=O)(=O)c1cccc(C(=O)OCC(=O)NCc2ccc3c(c2)OCO3)c1 | inactive | –
44 | C=CCn1c(=S)[nH]c2cc(C(=O)Nc3ccc(F)cc3)ccc2c1=O | inconclusive [cytotoxic, partial curve] | –
45 | CC(C)(C)c1ccc(NC(=O)COc2ccc(-n3ccnc3)cc2)cc1 | inconclusive [cytotoxic, single point] | –
46 | Cc1cc(C)cc(C(O)c2ncc(-c3ccc(C(F)(F)F)cc3)[nH]2)c1 (centres undefined) | inconclusive [cytotoxic, single point] | –
47 | CCOc1ccccc1NC(=O)NCc1ccco1 | inactive | –
48 | CC(=NNc1nc2ccccc2s1)c1ccncn1 | inconclusive [cytotoxic, full curve] | –
49 | O=C(N/N=C/c1ccc([N+](=O)[O-])s1)c1ccccc1Br | active: 15.8 µM | –
50 | COc1ccccc1NC(=O)NC1CCCCCCC1 | inactive | –
51 | CCc1nc2ccc(C(=O)NCCN3CCOCC3)cn2c1N(CC)CCOC | inconclusive [cytotoxic, full curve] | –
52 | CCOC(=O)/C=C/S(=O)(=O)c1ccc(NC(C)=O)cc1 | inconclusive [cytotoxic, single point] | –
53 | NC(=S)c1ccc(C(N)=S)o1 | inconclusive [rising, partial curve, poor fit] | –
54 | Cc1ccc(C(=O)NCC2CCCO2)cc1S(=O)(=O)N1CCCCC1 (centres undefined) | inactive | –

Row | SMILES | Potency | activity, negative = toxicity
55 | COCCN1Cc2cccc(C(=O)Nc3cccc(-c4nc5ccccc5[nH]4)c3)c2C1=O | active: 16.4 µM | –
56 | COc1ccc(NC(=O)C2(C)CCN2C(=O)CC2CCCC2)cc1OC (centres undefined) | inconclusive [rising, single point] | –
57 | Cn1nc(C(C)(C)C)cc1C(=O)N1CCCCC1c1cc(C(=O)Nc2cccc3c2CCCC3)no1 (centres undefined) | inconclusive [cytotoxic, single point] | –
58 | CCOc1ccc(C(=O)NCCCN(CC)CC)cc1 | inactive | –
59 | COCc1ccc(CN2CCC(n3nccc3NC(=O)CCCc3ccccc3)CC2)o1 | inactive | –
60 | Cc1cc(/C=C(\C#N)C(=O)N2CCCCC2)cc(C)c1O | active: 18.4 µM | –
61 | Cn1c(=O)c2c(nc(CN3CCN(c4ccccc4)CC3)n2Cc2ccccc2Cl)n(C)c1=O | inactive | –
62 | CC(=O)c1cccc(Nc2cc(C)nc3c(C)cc(C)cc23)c1 | inconclusive [cytotoxic, single point] | –
63 | CC(Oc1ccccc1)C(=O)Nc1nc(-c2ccccn2)cs1 (centres undefined) | – | inconclusive: -26% [cytotoxic]
64 | Cc1cc2oc(=O)cc(CN(C)Cc3ccccc3)c2cc1C | inconclusive [cytotoxic, single point] | –
65 | C=CCNc1nc(-c2sc(NC(=O)CC)nc2C)cs1 | inconclusive [cytotoxic, partial curve] | –
66 | O=C1CCCCC1Nc1ccc2ccccc2c1 (centres undefined) | inactive | –
67 | Cc1nc(Nc2ccccc2)sc1-c1ccccc1 | inconclusive [cytotoxic, single point] | –
68 | CCOc1ccc(/C=C/c2nc(C#N)c(NCCCN(C)C)o2)cc1 | inconclusive [cytotoxic, single point] | –
69 | Clc1cccc(-c2nc3ccc(Cl)cn3c2Cc2ccccc2)c1 | inconclusive [cytotoxic, single point] | –
70 | O=C1c2ccccc2CCCC12N=NCC2c1cccc2ccccc12 (centres undefined) | inconclusive [cytotoxic, single point] | –
71 | O=C(c1ccc(-c2ccccc2)cc1)N1CCC2CC1c1cc(-c3ccc4c(c3)OCO4)ccc12 (centres undefined) | inactive | –
72 | COC(=O)N/N=C/c1cn(Cc2ccccc2Cl)c2ccccc12 | inconclusive [cytotoxic, partial curve] | –
73 | Cn1c(=O)c2cc(NC(=O)Nc3ccccc3)ccc2n1Cc1ccccc1 | inconclusive [cytotoxic, partial curve] | –
74 | Cc1cc(C)n(-c2ccc(C(F)(F)F)cc2[N+](=O)[O-])n1 | inconclusive [rising, single point] | –
75 | Cc1nn(C2CCS(=O)(=O)C2)c(Cl)c1/C=C/C(=O)OCC(=O)c1cc(C)n(-c2ccc(F)cc2)c1C (centres undefined) | inconclusive [cytotoxic, partial curve] | –
76 | COc1ccc(NC(C)=O)cc1NC(=O)CSc1nnc(-c2ccc(F)cc2)n1N | inconclusive [cytotoxic, full curve] | –
77 | O=C(Nc1ccc(Br)cn1)c1cccc(-c2cc3ccccc3oc2=O)c1 | active: 23.1 µM | –
78 | COc1ccc(OC)c(N(CCN2C(=O)c3ccccc3C2=O)C(=O)CCl)c1 | active: 16.4 µM | –
79 | CC(SC(=S)N1CCOCC1)C(=O)O (centres undefined) | inactive | –
